Measured values taken from the supplement of paper PMC10126150.
Sequences with one replicate were seen in a single cluster, so their values are uncertain.

What follows are sequences tested on ATP (assay: switch fluorescence ratio, 500 uM ATP over buffer (Cy3 cluster intensity, sum of 5 cycles each) (fold (ratio)); higher = stronger signal-on switching upon ATP binding; sequences stand for … in TCGTCGGCAGCGTCAGATGTGTATAAGAGACAGTTTTTTTTTTTTTTTTTTTTTTTTT…TC). Details: aptamer strand: ATP DNA aptamer (quencher-CACCTGGGGGAGTATTGCGGAGGAAGG + anchor), 100 nM annealed; ATP concentration: 500 uM; one replicate.
Procedure, shortened: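 Five buffer/ATP imaging cycles were run on Cy3-labelled switching-strand clusters on a modified Illumina MiSeq flow-cell, with NaOH stripping and re-annealing between cycles. In each cycle, clusters annealed to 100 nM quencher-labelled ATP aptamer were imaged in selection buffer, then after 15 min with 500 uM ATP at 22 °C. Per cluster, the fluorescence ratio is summed target-cycle over summed buffer-cycle Cy3 intensity, averaged per switch-domain sequence. Only clusters within 100-1000 RFU were kept.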
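Further: ATP exposure 15 min at 22 °C before imaging.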

Row | Sequence | switch fluorescence ratio
1 | ATTAGCGGT | 0.987
2 | TGAATTTTCT | 0.987
3 | AGGGGGTGG | 0.994
4 | AAGGTGGAG | 1.04
5 | GGTTAAGGC | 0.975
6 | TTAGCTTAAC | 1.2
7 | AACGGAATTA | 1.05
8 | TTCATCTAAT | 0.987
9 | ATAACGGGTC | 0.997
10 | CTTACGGGGC | 1.07
11 | AGAGCTGCGT | 1.03
12 | TAATGTTTAC | 0.984
13 | AACAACGCGT | 0.991
14 | CGTACTAGCA | 1.06
15 | GGGTGCCA | 1.01
16 | GTTGTGGCAT | 1.02
17 | GGTCCCGGCG | 1
18 | AGAACGAAGC | 0.941
19 | CCCGATATAA | 1.12
20 | CAAAAGAGGG | 1
21 | ATTAAACATA | 1.01
22 | TCCCCCTTGT | 1.03
23 | CATTTGGTAT | 0.97
24 | GATTGGCGA | 0.97
25 | AGCAAAGCAA | 1.23
26 | AGAAGAAGCG | 1.02

Row | Sequence | switch fluorescence ratio
27 | TCGCCGCTTC | 1.68
28 | GGTACCCCCG | 1.78
29 | GACTTCCTGT | 1.07
30 | ACGAATTGGG | 1.02
31 | ACTACGGGGG | 0.957
32 | CTGTTATC | 1.02
33 | AGGACGTAGG | 1.01
34 | GCTGTAAAAT | 0.984
35 | CTATGTACTG | 1
36 | CGTAGATATG | 0.998
37 | AAGTGACTTT | 0.951
38 | AGTTGGGAGA | 1.04
39 | CTATTTGTAC | 1.04
40 | AGATCTACAC | 1.07
41 | TGTTTCGCGT | 0.979
42 | CGGTGAGCAG | 0.954
43 | AGTTATTATA | 1.01
44 | CTTCCTCCGG | 2.44
45 | GGTAATAACA | 0.978
46 | TCATATGGAC | 1.06
47 | GCCTATGGTT | 1.13
48 | TTTAGAGACG | 1.04
49 | GGTCACTGGG | 0.98
50 | AAAATGATCA | 0.973
51 | TCGCTGTCTC | 1.11
52 | TGATAGATGG | 1

Row | Sequence | switch fluorescence ratio
53 | ATGCTAGCTG | 1
54 | ATATAGTCG | 0.988
55 | AGAGTTGCGC | 1.05
56 | GCGGGGGCCC | 1.03
57 | CGTTGCGCCT | 1.04
58 | AAGCAGGCAG | 1.03
59 | ATCATTCTGC | 1.01
60 | CGTTCGTTGG | 0.993
61 | GGAGCAGCCG | 1.1
62 | CGTTCGCGGA | 1.11
63 | AGGTGTATCG | 0.959
64 | TAGCAACTTT | 1.01
65 | CTGATGCGTA | 1.07
66 | ACAGGGGCAT | 1.04
67 | ATGCTAGTGA | 1.01
68 | CGGAGTAAGG | 1.78
69 | TAACCAGCGG | 1.12
70 | CGCTTGCGCA | 1.04
71 | AATAGTAACG | 0.99
72 | GGTGGCTTAC | 1.12
73 | CAGTTTCCAA | 1
74 | TTAGTCATTG | 0.925
75 | GTGGGCAGAG | 1.01
76 | CTTCATAGGT | 1.02
77 | TGCTAATTC | 2
78 | CAATAATAGA | 0.986

Row | Sequence | switch fluorescence ratio
79 | CTCGTCAGGT | 1.06
80 | AAGAGTAGTC | 0.945
81 | CGTGGAGGTC | 1.02
82 | TAGTTCTGAA | 0.979
83 | CGCTGGGACG | 0.988
84 | CAGCAATGAT | 2.21
85 | ACTTATGAGC | 1.02
86 | TGAGTAAAGT | 1.04
87 | AAGCAGCTCC | 1.35
88 | TGTGACACGG | 1
89 | TGTGAGTTAA | 1
90 | TCGATGTGCT | 1.04
91 | GCAAGGCGGT | 1.04
92 | GTTGATTTG | 0.954
93 | ACTTATTACC | 1.07
94 | TCAAGTACTG | 1.28
95 | CGAATTTC | 1.02
96 | AGGCCTTGGG | 1.01
97 | ACGTGACCGA | 1.23
98 | AATTCGGTAC | 1.13
99 | GCGTTCACCT | 1.07
100 | TCCCACTCGG | 1.05
101 | TGCCAGCAAA | 0.997
102 | TAGGAATAGG | 1.02
103 | GATGTCCGCC | 1.65
104 | CGGTCAGTTA | 1.03

Row | Sequence | switch fluorescence ratio
105 | AATCCATTAG | 0.987
106 | GTCAGCATGG | 1.09
107 | GGTACTGCTA | 1.13
108 | CTGCCGCCGC | 3
109 | GTGGCGCGTT | 0.998
110 | GGGTCCGTTG | 1.01
111 | AGCGAACTCG | 1.06
112 | GGGACCCCG | 1.04
113 | ATGATCCACA | 1.05
114 | ACTGCATGGT | 1.07
115 | CACCTATTAG | 1.04
116 | CTGGGTGATG | 0.985
117 | GGCTCGCGCT | 0.974
118 | TGCAGCGGGT | 1.04
119 | CTTGTACAAG | 1
120 | GCCTTACTAG | 1.08
121 | TGATGCGTCG | 0.951
122 | TATTCAGCAT | 1.04
123 | ACCACGTGC | 1.02
124 | TTGCTGGACT | 1.01
125 | ACAGGTCGCC | 1.02
126 | CGTATACCGA | 1.04
127 | TCCATAGTTC | 1.05
128 | TGTGTATAAT | 0.98
129 | TTGCGATGTG | 1.03
130 | CGGTCAGATT | 0.997

Row | Sequence | switch fluorescence ratio
131 | CCGTTCAAT | 3.99
132 | TTGTGTCGAA | 0.986
133 | AACAACGAGC | 0.973
134 | TAATCGGGG | 0.983
135 | TACACCTAG | 1.02
136 | CCTTTAATAA | 1.15
137 | GCGCCCGTGC | 1.03
138 | GTTCTTCGCC | 1.04
139 | CGCATTAGCT | 1.21
140 | GGAAGAACAG | 1.07
141 | TTAGACCAGC | 0.95
142 | GTGAGATCTG | 1.01
143 | GCGATAGCG | 0.968
144 | GAATTCGCTT | 1.03
145 | ACGATGTCTG | 0.977
146 | GCATGAGTAA | 1.01
147 | TGGTGCAATT | 1.04
148 | TTGACGTTGG | 0.994
149 | CGGGGTCAGC | 0.984
150 | ATCAGTAGCT | 1.03
151 | ACCGTGTTCG | 1.06
152 | CTGAGAATTC | 0.985
153 | GGATGCATGT | 0.967
154 | CTCAGAAATT | 1.07
155 | CTCATTAATT | 0.948
156 | GTATCCGCCT | 0.937

Row | Sequence | switch fluorescence ratio
157 | AACAGTTGC | 0.989
158 | GCAGCTGCGC | 0.992
159 | TACAAGGATT | 0.994
160 | TTAATTCTG | 1.01
161 | CAAGATTGAA | 1.03
162 | TTTAGTATC | 0.978
163 | GGCTTGCCCA | 1.01
164 | TTGACTGAGC | 0.983
165 | ATTGTGGCTT | 1.03
166 | AGATGAGATC | 1.01
167 | TTAATAGCAG | 0.993
168 | TTTATCTGGT | 0.985
169 | GATCGTCAGC | 1.01
170 | TGAGATGTAG | 1
171 | GTATGAGTGT | 0.969
172 | CGGCTTGCCT | 1.02
173 | CGGAATCTAA | 1.04
174 | GTTTAACGTG | 0.996
175 | ATACTTAGAC | 1.07
176 | TGGCCGTCGG | 1.01
177 | ATTACTCATA | 1.09
178 | AGCTACGAGC | 1.12
179 | TTTGAGGTTG | 1.01
180 | AGTTATGGGT | 1.02
181 | CACTCCTAGC | 1.13
182 | TACTTTCCTA | 1.02

Row | Sequence | switch fluorescence ratio
183 | GCTGAGGTTC | 1.06
184 | CGGGGCATGA | 0.954
185 | TGACGAGCGT | 2.98
186 | CGCAGGAAGG | 0.956
187 | TCTAATCAAG | 0.982
188 | AGACCCCCTA | 1.3
189 | TGGTCCAGCT | 1.04
190 | ACTTTTCAGT | 0.987
191 | TCCGTATATA | 1.79
192 | ACCAAGACGA | 1.18
193 | GCTCAGATAC | 2.07
194 | GGTGATTCGA | 0.97
195 | AGACCTATTC | 1.06
196 | CCGGAGGCGT | 1.17
197 | TCTATCGGTC | 1.04
198 | AAACAGACAG | 0.981
199 | GTAGGCAGCG | 1.06
200 | ACTCTCCGCT | 2.04
201 | TTTCTCATC | 0.955
